Data on 146 sequences can be found in the BET-seq Pho4 binding data (Le et al. 2018).

Some of the results follow. These are noisy estimates, calculated here from bound and input reads.

In this test the target is T1, Pho4 (S. cerevisiae) (UniProt P07270).
T1 sequence: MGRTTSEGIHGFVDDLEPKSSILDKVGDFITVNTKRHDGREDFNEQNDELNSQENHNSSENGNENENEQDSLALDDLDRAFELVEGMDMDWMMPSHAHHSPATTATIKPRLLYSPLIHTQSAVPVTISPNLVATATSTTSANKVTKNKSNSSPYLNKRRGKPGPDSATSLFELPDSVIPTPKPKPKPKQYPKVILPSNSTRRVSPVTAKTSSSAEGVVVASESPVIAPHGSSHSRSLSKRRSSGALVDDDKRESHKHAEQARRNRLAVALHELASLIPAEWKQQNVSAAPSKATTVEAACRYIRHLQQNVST
Description: relative binding free energy (BET-seq); higher = weaker binding. The conditions noted are these: reference: library average.
TTGATCACGTGCGGTT: the “relative binding free energy” value is 0.21 kcal/mol.
In the case of TGGGTCACGTGCTGTA, the “relative binding free energy” value is 0.08 kcal/mol.
For AGCGGCACGTGAGGTC the value was 0.13 kcal/mol; for TCTGTCACGTGAGGAG, 0.2 kcal/mol.
As to TTAGTCACGTGTGAGT, the “relative binding free energy” value came out at 0.23 kcal/mol.
For CGAGTCACGTGTGTTG the value was -0.02 kcal/mol.
For CTTTGCACGTGTCGTG the value was -0.05 kcal/mol; for CTATGCACGTGGGTTG, -0.2 kcal/mol.
The figure for CGTACCACGTGTGGTG is -0.04 kcal/mol; for AGGGTCACGTGTTTCG it is 0.18 kcal/mol; for TAAGGCACGTGGACGT it is -0.11 kcal/mol.
For the sequence CTGAACACGTGATTGG, the “relative binding free energy” value is 0.24 kcal/mol.
The figure for GTATGCACGTGGCTGC is 0.04 kcal/mol.
Turning to CGTTGCACGTGTCGGG, the “relative binding free energy” value was -0.08 kcal/mol.
For the sequence CGGAACACGTGGGGTT, the “relative binding free energy” value is -0.14 kcal/mol.
Take TCGATCACGTGGGGGA: the “relative binding free energy” value is -0.13 kcal/mol.
Take TGAGGCACGTGGGCCT: the “relative binding free energy” value is -0.14 kcal/mol.
As for TTGGGCACGTGCAGGC, the “relative binding free energy” value was -0.18 kcal/mol.
For AGTGTCACGTGCTCGT, the “relative binding free energy” value is -0.04 kcal/mol.
Regarding TGAGACACGTGGATTT, the “relative binding free energy” value was 0.16 kcal/mol.
With TCGGGCACGTGGATAT, the “relative binding free energy” value is -0.08 kcal/mol.
The figure for AATTGCACGTGGTCGG is -0.09 kcal/mol; for GTCAACACGTGTGTAT it is 0.12 kcal/mol; for GGATTCACGTGTTACG it is 0.38 kcal/mol.
The figure for GGACTCACGTGGTTTG is 0.2 kcal/mol; for TGATACACGTGGCGGT it is 0.11 kcal/mol; for CATATCACGTGTTAGT it is 0.04 kcal/mol.
The figure for ATGTTCACGTGAGGCT is 0.33 kcal/mol; for CGTATCACGTGTTAAG it is 0.14 kcal/mol.
TATGACACGTGTTGTA: the “relative binding free energy” value is -0.03 kcal/mol.
For the sequence GGGGCCACGTGTGTGG, the “relative binding free energy” value worked out at 0.05 kcal/mol.
In the case of AAGCTCACGTGGGTTG, the “relative binding free energy” value amounted to 0.06 kcal/mol.
For AATGACACGTGGTGTT the value was -0.13 kcal/mol; for CTTAGCACGTGTTGGT, -0.01 kcal/mol; for AATGACACGTGATAGG, 0.12 kcal/mol.
For GGATACACGTGGGCCG the value was 0.02 kcal/mol; for ATATGCACGTGTTATT, -0.05 kcal/mol; for GGTTTCACGTGTCGGG, 0.36 kcal/mol.
In the case of AGTAGCACGTGCGTTT, the “relative binding free energy” value is -0.21 kcal/mol.
With CCGTTCACGTGTTTGT, the “relative binding free energy” value turned out to be 0.12 kcal/mol.
The figure for TTCATCACGTGGAGGA is 0.31 kcal/mol; for GGTTACACGTGGTGCA it is 0.08 kcal/mol.
The figure for GATTGCACGTGCGCGG is -0.08 kcal/mol; for GGTTGCACGTGATTTC it is 0.28 kcal/mol.
The figure for TGCGTCACGTGAGGTC is 0.22 kcal/mol; for TTGGGCACGTGCGGGT it is -0.07 kcal/mol; for TCTAGCACGTGAATGG it is 0.31 kcal/mol.
As for TATTCCACGTGAGTTG, the “relative binding free energy” value turned out to be 0.33 kcal/mol.
Consider GTTTTCACGTGTATTG, for which the “relative binding free energy” value was determined as 0.27 kcal/mol.
Consider TAGAGCACGTGCTTGG, for which the “relative binding free energy” value was -0.16 kcal/mol.
For TAGGTCACGTGTAAAA the value was 0.11 kcal/mol; for ACGTTCACGTGTGGTT, 0.29 kcal/mol; for AGAGGCACGTGGATTA, -0.05 kcal/mol.
The figure for TTTGTCACGTGGAGGG is 0.11 kcal/mol; for ATACACACGTGATGGT it is 0.17 kcal/mol; for GGGTTCACGTGTGACG it is 0.27 kcal/mol.
The figure for GTATTCACGTGCTGTA is 0.18 kcal/mol; for ATTACCACGTGGGTGT it is -0.18 kcal/mol; for GTGAGCACGTGCAGTA it is -0.02 kcal/mol.
As for GTTGCCACGTGGTGTC, the “relative binding free energy” value was found to be 0.02 kcal/mol.
For CTGGTCACGTGAGGCG the value was 0.07 kcal/mol; for GGGGACACGTGGTTTT, 0.1 kcal/mol.
The figure for GTTACCACGTGTGGGA is -0.07 kcal/mol.
For TGGTGCACGTGACTAT the value was 0.02 kcal/mol.
With TGGTTCACGTGGCTGA, the “relative binding free energy” value was 0.24 kcal/mol.
For GACTTCACGTGTTAGT the value was 0.2 kcal/mol; for TAATGCACGTGATTAT, -0.06 kcal/mol.
For GGGTTCACGTGATGTA, the “relative binding free energy” value was 0.28 kcal/mol.
For GGAAACACGTGTTGTT the value was 0.03 kcal/mol; for TCTTCCACGTGGTAGG, 0.09 kcal/mol.
The figure for GTCTGCACGTGGGGTA is -0.07 kcal/mol; for GGCGGCACGTGTGTGG it is 0.07 kcal/mol; for ATTGACACGTGTGTCT it is 0.1 kcal/mol.
For CATGGCACGTGATGTT the value was 0.11 kcal/mol; for CGTCGCACGTGGGTGT, -0.15 kcal/mol; for GAAGTCACGTGCTGGG, 0.07 kcal/mol.
As to ATGGGCACGTGCATGG, the “relative binding free energy” value was -0.14 kcal/mol.
The figure for TTTTTCACGTGTACAG is 0.24 kcal/mol; for TGGCACACGTGTGTTG it is -0.02 kcal/mol.
The figure for GCGTGCACGTGGGAAT is -0.14 kcal/mol.
TGTAGCACGTGGGCCG: the “relative binding free energy” value was -0.25 kcal/mol.
The figure for TAGTTCACGTGTTTGG is 0.25 kcal/mol.
For TCATTCACGTGGCGGT the value was 0.19 kcal/mol; for CGTTGCACGTGTTTGA, -0.02 kcal/mol; for ATGCGCACGTGGTAGT, -0.14 kcal/mol.
For the sequence GGCGCCACGTGGGACG, the “relative binding free energy” value amounted to 0.02 kcal/mol.
As to AGCTTCACGTGTTGGA, the “relative binding free energy” value came to 0.25 kcal/mol.
In the case of AAGCACACGTGTGTGT, the “relative binding free energy” value was determined as 0.15 kcal/mol.
The figure for TTAAGCACGTGGGTAC is -0.21 kcal/mol; for CGGGGCACGTGGAGAG it is 0 kcal/mol; for AGAAGCACGTGAGGAT it is 0.33 kcal/mol.
As to GTGCCCACGTGAGGGG, the “relative binding free energy” value is -0.07 kcal/mol.
The figure for TTTTGCACGTGGAAGC is -0.06 kcal/mol; for AACGTCACGTGTGTGC it is 0.15 kcal/mol; for ACTGACACGTGTGATG it is 0.11 kcal/mol.
For ATTATCACGTGGCAAG the value was 0.13 kcal/mol.
For the sequence GTTAACACGTGGTGGT, the “relative binding free energy” value was -0.02 kcal/mol.
As to CAGAACACGTGTTGGG, the “relative binding free energy” value is 0.05 kcal/mol.
The figure for ATAAACACGTGTTTTT is 0.1 kcal/mol; for AGGGGCACGTGATAGT it is 0.06 kcal/mol; for ATAGACACGTGTTGTT it is -0.13 kcal/mol.
The figure for GATTGCACGTGGATTG is 0.14 kcal/mol; for GCAGGCACGTGGGCGT it is -0.3 kcal/mol.
For GTCGTCACGTGGGTGA the value was -0.1 kcal/mol.
On to ATTTTCACGTGGGAAA, for which the “relative binding free energy” value was 0.12 kcal/mol.
Take TTTCGCACGTGTTTAT: the “relative binding free energy” value was 0.03 kcal/mol.
For TTGGTCACGTGTAGAT the value was 0.39 kcal/mol; for CGGGCCACGTGTGGAG, -0.08 kcal/mol.
For TTCGGCACGTGGCGTG the value was -0.22 kcal/mol; for TATTGCACGTGATAAA, 0.07 kcal/mol; for AAGAGCACGTGTAGGA, -0.2 kcal/mol.
For AGATACACGTGAGGCT the value was 0.3 kcal/mol; for AGATGCACGTGTGTCG, -0.06 kcal/mol; for TTGATCACGTGTAGAA, 0.22 kcal/mol.
In the case of TAACTCACGTGAGTGT, the “relative binding free energy” value is 0.4 kcal/mol.
The figure for AGGAGCACGTGTGGCC is 0.02 kcal/mol.
Take ATATGCACGTGGGGTA: the “relative binding free energy” value was -0.37 kcal/mol.
The figure for TGAGTCACGTGGGAAT is 0.12 kcal/mol; for CGGGTCACGTGTGGTT it is 0.17 kcal/mol; for AGGTACACGTGTATAG it is 0.05 kcal/mol.
Turning to GTCTGCACGTGTGCGT, the “relative binding free energy” value was -0.01 kcal/mol.
The figure for GGTCGCACGTGCGGTG is -0.07 kcal/mol.
As for GAGGGCACGTGGGCTG, the “relative binding free energy” value is -0.27 kcal/mol.
The figure for TTACTCACGTGGTGGA is 0.14 kcal/mol.
The figure for TGCCGCACGTGTGTGT is -0.1 kcal/mol.
The figure for GGATTCACGTGGTCGT is 0.18 kcal/mol; for TTAAACACGTGTAGGG it is 0.02 kcal/mol.
As for AGCTTCACGTGGCGGG, the “relative binding free energy” value was determined as 0.26 kcal/mol.
For ATGGCCACGTGTGCTT the value was 0.06 kcal/mol; for GTAGTCACGTGTTAGG, 0.19 kcal/mol.
As for ATCAGCACGTGGGTTA, the “relative binding free energy” value is -0.18 kcal/mol.
Consider TGTGGCACGTGAAGCA, for which the “relative binding free energy” value turned out to be 0.15 kcal/mol.
The figure for CGGGGCACGTGGGAAA is -0.1 kcal/mol; for TACGGCACGTGGACGT it is 0.02 kcal/mol.
Turning to CAGTTCACGTGTGGTG, the “relative binding free energy” value was 0.28 kcal/mol.
For AGTCTCACGTGCAGGG the value was 0.28 kcal/mol; for TTTATCACGTGATTTA, 0.31 kcal/mol; for ATTGACACGTGCAAGG, -0.03 kcal/mol.
The figure for AATTGCACGTGGCATG is -0.11 kcal/mol.
For GGCGTCACGTGCCGGG, the “relative binding free energy” value was -0.01 kcal/mol.
For TAAGACACGTGTGCTG the value was 0.06 kcal/mol.
For GGCGTCACGTGCGGGC the value was 0.17 kcal/mol; for AATGACACGTGGTGCT, -0.15 kcal/mol.
As to GGTAACACGTGATAGT, the “relative binding free energy” value came out at 0.26 kcal/mol.
For the sequence TGGGGCACGTGATTTT, the “relative binding free energy” value stood at 0.01 kcal/mol.
Take AGGCTCACGTGTAGGG: the “relative binding free energy” value is 0.06 kcal/mol.
